Measured values published in PubChem BioAssay (NCATS).
“And” between values parts separate entries of the source, which are not always exact repeats. Identical values can stand only once. Inconclusive results, whose numbers are uncertain, are shown with a selection of clear calls. A potency beside an inconclusive call is a rough fit, not a confirmed value. The source made the active and inactive calls. Calls follow the shape of the dose curve; as a rule, active = well fitted curve in the direction sought with a large enough effect; inconclusive = small, poorly fitted or top-dose-only effect, or another doubt; inactive = no such curve, though single readings can be large; an effect the other way counts as inactive or inconclusive.

How the values were obtained:
[1] = qHTS of pediatric cancer cell lines to identify multiple opportunities for drug repurposing: Primary screen for Saos-2 cells (AID 1347097); conditions: Saos-2 viability, CellTiter-Glo ATP luminescence, 48 h; activity change, negative = cytotoxic: at 46 µM (top of the series); also: nearly all actives have a fitted effect of over 40% in size
Outline: (§1)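 CRCs from 8- or 11-point titrations (lowest final 0.59 nM NPC, 0.78 nM MIPE). Cell viability: CellTiter-Glo after 48 h incubation, 15 min room-temperature development, luminescence imaging.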

[2] = qHTS of pediatric cancer cell lines to identify multiple opportunities for drug repurposing: Primary screen for SK-N-SH cells (AID 1347098); conditions: SK-N-SH viability, CellTiter-Glo luminescence, 48 h; activity change, negative = cytotoxic: at 57 µM (top of the series); also: nearly all actives have a fitted effect of over 65% in size
Outline: (§2)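 Cells (500-1,000/well) rested 5 h, then received compounds for 48 h; metabolically active cells were measured by CellTiter-Glo luminescence. Final concentrations spanned up to 46 µM (MIPE, 11-point) or 0.59 nM-46 µM (NPC, 8-point) in primary screens, 11-point in follow-ups.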

[3] = qHTS of pediatric cancer cell lines to identify multiple opportunities for drug repurposing: Primary screen for RD cells (AID 1347104); conditions: RD rhabdomyosarcoma viability, CellTiter-Glo luminescence, 48 h; series mostly up to 46 µM; also: nearly all actives have a fitted effect of over 55% in size
Outline: as §1

[4] = qHTS of pediatric cancer cell lines to identify multiple opportunities for drug repurposing: Primary screen for NB1643 cells (AID 1347099); conditions: NB1643 neuroblastoma viability, CellTiter-Glo luminescence, 48 h; series mostly up to 46 µM; also: nearly all actives have a fitted effect of over 50% in size
Outline: as §1

[5] = qHTS of pediatric cancer cell lines to identify multiple opportunities for drug repurposing: Primary screen for BT-12 cells (AID 1347101); conditions: BT-12 viability, CellTiter-Glo luminescence, 48 h; series mostly up to 57.3 µM; also: nearly all actives have a fitted effect of over 25% in size
Outline: as §2

[6] = qHTS of pediatric cancer cell lines to identify multiple opportunities for drug repurposing: Primary screen for Rh18 cells (AID 1347102); conditions: Rh18 rhabdomyosarcoma viability, CellTiter-Glo luminescence, 48 h; series mostly up to 46 µM; also: nearly all actives have a fitted effect of over 65% in size
Outline: as §2

[7] = qHTS of pediatric cancer cell lines to identify multiple opportunities for drug repurposing: Primary screen for LAN-5 cells (AID 1347100); conditions: LAN-5 neuroblastoma viability, CellTiter-Glo luminescence, 48 h; activity change, negative = cytotoxic: at 46 µM (top of the series)
Outline: as §2

[8] = qHTS of pediatric cancer cell lines to identify multiple opportunities for drug repurposing: Primary screen for OHS-50 cells (AID 1347103); conditions: OHS-50 osteosarcoma viability, CellTiter-Glo luminescence, 48 h; series mostly up to 57.3 µM; also: nearly all actives have a fitted effect of over 40% in size
Outline: as §2
Potency is read from the fitted curve at half-maximal effect; tags tell the direction and shape of the fitted curve.

Nc1nnc(-c2cccc(Cl)c2Cl)c(N)n1
Potency [1]: inconclusive: 29.9 µM [cytotoxic, single point]
Potency [2]: inconclusive: 42.9 µM [cytotoxic, single point]
Potency [3]: inconclusive: 46.9 µM [cytotoxic, single point]

Cn1c(N2CCCCS2(=O)=O)nc(C(=O)NCc2ccc(F)cc2)c(O)c1=O
Potency [1]: inconclusive: 18.7 µM [cytotoxic, partial curve]
Potency [4]: inactive

Cc1ccc(N(CC2=NCCN2)c2cccc(O)c2)cc1
Potency [1]: inconclusive: 23.5 µM [cytotoxic, single point] and inconclusive: 29.9 µM [cytotoxic, single point]
Potency [4]: inconclusive: 18.7 µM [cytotoxic, partial curve]
Potency [5]: inconclusive: 27.3 µM [cytotoxic, single point] and inconclusive: 27.6 µM [cytotoxic, partial curve, poor fit]
Potency [3]: inconclusive: 20.9 µM [cytotoxic, partial curve]

C[C@@]1(C(=O)Nc2ccc(F)nc2)CCCN1c1nc(Nc2cc(C3CC3)[nH]n2)c2cccn2n1
Potency [1]: active: 1.05 µM
Potency [4]: active: 0.0935 µM
Potency [6]: active: 16.6 µM
Potency [3]: inconclusive: 0.0264 µM [cytotoxic, full curve]

COc1ccccc1N1CCN(CCN(C(=O)C2CCCCC2)c2ccccn2)CC1
Potency [1]: inactive
Potency [7]: inactive
Potency [5]: inconclusive: 5.44 µM [cytotoxic, partial curve, poor fit]

COc1cc2nccc(Oc3ccc(NC(=O)Nc4ccc(F)cc4F)c(F)c3)c2cc1OC
Potency [1]: inconclusive: 4.18 µM [cytotoxic, partial curve]
Potency [4]: inconclusive: 0.296 µM [cytotoxic, full curve]
Potency [5]: inactive
Potency [6]: inconclusive: 3.72 µM [cytotoxic, partial curve, poor fit]
Potency [3]: inconclusive: 9.35 µM [cytotoxic, partial curve, poor fit]

CC(C)NCC(O)COc1ccc(COCCOC(C)C)cc1 (configuration not stated)
Potency [1]: inactive
Potency [6]: inactive

c1ccc(-c2nn3c(c2-c2ccnc4cc(OCCN5CCOCC5)ccc24)CCC3)nc1
Potency [1]: inconclusive: 0.0662 µM [cytotoxic, full curve]
Potency [7]: inconclusive: 20.9 µM [cytotoxic, single point]
Potency [8]: inconclusive: 6.85 µM [cytotoxic, full curve]

CC[C@@H]([C@H](C)O)n1ncn(-c2ccc(N3CCN(c4ccc(OCC5CO[C@@](Cn6cncn6)(c6ccc(F)cc6F)C5)cc4)CC3)cc2)c1=O (some centres not stated)
Potency [1]: active: 26.4 µM
Potency [7]: active: 18.7 µM
Potency [6]: inconclusive: 23.5 µM [cytotoxic, single point]
Potency [3]: active: 20.9 µM

COCCCCC(=NOCCN)c1ccc(C(F)(F)F)cc1
Potency [1]: inconclusive: 13.2 µM [cytotoxic, partial curve, poor fit]
Potency [5]: inconclusive: 24.3 µM [cytotoxic, single point]
Potency [8]: inconclusive: 7.69 µM [cytotoxic, partial curve]

OC(CN1CCN(c2cccc(Cl)c2)CC1)C(c1ccccc1)c1ccccc1 (configuration not stated)
Potency [1]: active: 18.7 µM
Potency [7]: inconclusive: 33.2 µM [cytotoxic, single point]
Potency [5]: inconclusive: 43.2 µM [cytotoxic, single point]
Potency [3]: inconclusive: 41.8 µM [cytotoxic, single point]

O=C(O)[C@H]1O[C@H](Oc2cc3oc(-c4ccccc4)cc(=O)c3c(O)c2O)[C@H](O)[C@@H](O)[C@H]1O
Potency [1]: inconclusive: 18.7 µM [cytotoxic, partial curve]
Potency [4]: active: 0.118 µM
Potency [5]: inactive
Potency [6]: inconclusive: 18.7 µM [cytotoxic, single point]
Potency [8]: inconclusive: 24.3 µM [cytotoxic, partial curve]

CNC(=O)[C@H](Cc1ccccc1)NC(=O)[C@H](CC(C)C)[C@H](CSc1cccs1)C(=O)NO
Potency [1]: inconclusive: 1.66 µM [cytotoxic, full curve, poor fit]
Potency [4]: inconclusive: 23.5 µM [cytotoxic, partial curve]
Potency [5]: inconclusive: 21.7 µM [cytotoxic, partial curve, poor fit]
Potency [8]: inconclusive: 19.3 µM [cytotoxic, partial curve]
Potency [3]: inconclusive: 20.9 µM [cytotoxic, partial curve]
